# Among all 340,000 compounds or so, about 12,000 (3.5%) were called active. Inconclusive results, whose numbers are uncertain, are shown with a selection of clear calls. Calls follow the shape of the dose curve; as a rule, active = well fitted inhibition curve with a large enough effect; inconclusive = small, poorly fitted or top-dose-only effect, or another doubt; inactive = no such curve, though single readings can be large or run the other way. No potency is given beside an inconclusive call; the fits are too rough.
# Assay: qHTS Assay for Inhibitors of Hepatitis C Virus (HCV)
# Settings: Huh7.5.1 HCVcc-Cre (HCVcc is cell-culture hepatitis C virus) infection, luciferase reporter, 44 h; activity change, negative = inhibition: at 41.8 µM (top of the series) unless noted
# Outline: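 A cell-based infection assay in which seeded cells (1,000 per well) receive test compound after 4 h, are inoculated with HCVcc-Cre at approximately 0.5 moi, and are incubated 44 h before luminescence detection.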
# % is scaled to controls: 0 for no effect and ±100 for the full control effect; potency is read from the fitted curve at half-maximal effect; tags tell the direction and shape of the fitted curve.
SMILES,Potency,"activity change, negative = inhibition"
Cc1c(C(c2ccc(C(=O)O)cc2)c2c(C)n(C)n(-c3ccccc3)c2=O)c(=O)n(-c2ccccc2)n1C,active: 3.55 µM,
O=C(NNC(=O)C1C2CCC(C2)C1C(=O)O)c1ccc(Br)o1 (stereo unspecified),,inactive: -1.07%
COC(=O)c1ccccc1NC(=O)CN1CCC(C(=O)c2ccc3c(c2)OCCO3)CC1,"inconclusive [inhibitor, single point]",
Cc1ncoc1C(=O)N1CCc2c([nH]c3ccccc23)C1C1CCCCC1 (stereo unspecified),,inactive: 16.1%
Cc1ccc(NC(=O)CN(C)C(=O)c2cccc(S(=O)(=O)N3CCCC3)c2)cc1,,inactive: 3.18%
CCCS(=O)(=O)Nc1cc(C(F)(F)F)ccc1OCCOC,"inconclusive [inhibitor, full curve, poor fit]",
CCCS(=O)(=O)n1nc(-c2ccc(Br)cc2)cc1N,,inactive: -23.6%
CCCCn1c(SCn2nnc3ccccc3c2=O)nc2cc(S(N)(=O)=O)ccc21,"inconclusive [inhibitor, partial curve]",
CCn1c(=O)c2cc(C(=O)Nc3ccccc3OC)sc2c2ccccc21,"inconclusive [inhibitor, full curve]",
O=C(NCc1ccccc1)Nc1cccn(Cc2c(F)cccc2Cl)c1=O,"inconclusive [inhibitor, single point]",
COc1ccc(NC(=O)CSc2nc3c(c(=O)n2-c2ccccc2OC)SCC3)cc1,inactive,
N#Cc1nc(-c2ccc(OCc3ccc(Cl)cc3)cc2)oc1N1CCOCC1,"inconclusive [inhibitor, partial curve]",
CCN(c1cccc(C)c1)S(=O)(=O)c1ccc2c3c(cccc13)C(=O)N2,"inconclusive [inhibitor, single point]",
Cc1csc(NC(=O)C2CCN(S(=O)(=O)c3cccs3)CC2)n1,"inconclusive [inhibitor, single point]",
CCn1ncc(CN2CCCC(C(=O)c3cccc(OC(C)C)c3)C2)c1C (stereo unspecified),"inconclusive [inhibitor, single point]",
CN(c1ccccc1)S(=O)(=O)c1cccc(C(=O)NCc2ccccc2)c1,"inconclusive [inhibitor, single point]",
COCCn1nnnc1C(C(C)C)N(Cc1cccnc1)Cc1ccccc1Cl (stereo unspecified),"inconclusive [inhibitor, single point]",
Oc1cc(-n2cccn2)c(O)cc1-n1cccn1,,inactive: -7.59%
Cc1cc(C)n(-c2ccc(C(=O)Nc3cccc([N+](=O)[O-])c3)cc2)n1,active: 11.2 µM,
O=C(c1ccc(Cl)cc1)c1cnc2ccccn12,"inconclusive [inhibitor, partial curve]",
CCN1CCN(CC2CC3C=CC2C3)CC1 (stereo unspecified),"inconclusive [inhibitor, full curve]",
O=C(Nc1ccccc1N1CCCC1)c1cc2ccccc2o1,"inconclusive [inhibitor, full curve, poor fit]",
Cc1ccc(Cn2c(=O)c3cccnc3n(CC(=O)Nc3cccc(C(F)(F)F)c3)c2=O)cc1,"inconclusive [inhibitor, full curve]",
O=C(CSc1nccc2ccccc12)N1CCN(Cc2ccc3c(c2)OCO3)CC1,"inconclusive [inhibitor, partial curve, poor fit]",

SMILES,Potency,"activity change, negative = inhibition"
CC(=O)c1ccc(OCC(=O)Nc2ccc(N3CCCCC3)cc2)cc1,"inconclusive [inhibitor, partial curve]",
O=C1CC2(CCCC2)C(=O)N1CN1CCN(S(=O)(=O)c2ccc(F)cc2F)CC1,,inactive: -2.52%
COc1ccc(-c2noc(N3CCC(C(=O)NC(C)c4ccccc4)CC3)n2)cc1 (stereo unspecified),"inconclusive [inhibitor, partial curve]",
COn1c(=O)c(-c2cccs2)[n+]([O-])c2ccccc21,"inconclusive [inhibitor, full curve, poor fit]",
CCOC(=O)c1c(NC(=O)CSc2nccn2C)sc(C(=O)NC)c1C,active: 10 µM,
Cc1ccc(NCc2nnc(SCC(=O)OC3CCCCC3)o2)c(C)c1,,inactive: -3.54%
COc1cccc(/C=N/Nc2cc(C)nc(-c3ccccc3O)n2)c1O,active: 12.6 µM,
COc1ccccc1N1CCN(C(=O)c2oc3cc(C)c(C)cc3c2C)CC1,"inconclusive [inhibitor, partial curve, poor fit]",
CC(C)(C)c1cc(C(=O)Nc2cccnc2)cc(C(=O)Nc2cccnc2)c1,"inconclusive [inhibitor, partial curve]",
CCc1cc(CNC(=O)CC2C(=O)NCCN2Cc2c(F)cccc2Cl)on1 (stereo unspecified),,inactive: 17.3%
O=C(COc1coc(CN2CCN(Cc3ccccc3)CC2)cc1=O)Nc1ccccc1,"inconclusive [inhibitor, partial curve, poor fit]",
Cn1ccnc1SCC(=O)N1CCN(S(=O)(=O)c2ccccc2)CC1,,inactive: 7.4%
Cc1cc(C(=O)C(C)OC(=O)C2=NNC(=O)CC2)c(C)n1-c1ccc(OC(F)F)cc1 (stereo unspecified),"inconclusive [inhibitor, single point]",
O=C(c1ccco1)N1CCN(Cc2ccccc2F)CC1,,inactive: 13.6%
CCOc1ccc(NC(=O)c2cc3n(n2)C(C(F)(F)F)CC(c2ccco2)N3)cc1 (stereo unspecified),"inconclusive [inhibitor, single point]",
Cc1ccc2c(c1)C1CN(C)CCC1N2C(=S)Nc1ccc(Cl)cc1Cl (stereo unspecified),active: 14.1 µM,
Cn1c(CCN2CCOCC2)nc2cc(NC(=O)COc3ccc([N+](=O)[O-])cc3)ccc21,,inactive: -4.02%
O=S(=O)(c1ccc(NC(=S)N2CCN(c3ccc(O)cc3)CC2)cc1)N1CCOCC1,"inconclusive [inhibitor, single point]",
CN(C)c1ccc(CN(C(=O)/C=C/c2ccco2)C2CCS(=O)(=O)C2)cc1 (stereo unspecified),"inconclusive [inhibitor, single point]",
Cc1ccc(C2(O)CC(C)N(C)CC2C)cc1 (stereo unspecified),,inactive: -11.2%
O=C(CN1CCC(n2nnc3cc(F)ccc32)CC1)N1CCc2ccccc2C1,"inconclusive [inhibitor, partial curve, poor fit]",
O=[N+]([O-])c1c(NCCCO)cc(N2CCCCCC2)c2nonc12,,inactive: -3.77%
Cc1ccc(-n2ncc3c(NCCCOC(C)C)ncnc32)c(C)c1,,inactive: -18.1%
O=C(Nc1cccc2c1CCCC2)c1ccccc1Br,"inconclusive [inhibitor, single point]",

SMILES,Potency,"activity change, negative = inhibition"
COc1ccccc1CNS(=O)(=O)c1ccc2c(c1)NC(=O)C(C)S2 (stereo unspecified),"inconclusive [inhibitor, single point]",
Fc1ccc(C2c3[nH]c4ccccc4c3CCN2CCCn2cccn2)cc1 (stereo unspecified),"inconclusive [inhibitor, single point]",
O=C(Nc1ccn(Cc2cccc3ccccc23)n1)c1cccnc1,"inconclusive [inhibitor, single point]",
COc1ccc2nc(NC(=O)c3cccc(N4C(=O)CCC4=O)c3)sc2c1,"inconclusive [inhibitor, single point]",
Cc1ccc(C(=O)CSc2nnc3ccccn23)c(C)c1,,inactive: 0.408%
NC(=O)C1CCN(C(=O)c2ccc3nc(N4CCCCC4)sc3c2)CC1,,inactive: 1.26%
O=C(c1ccc(Cl)cc1)c1cccc(O)c1,,inactive: 5.1%
COc1cc2c(OC(C)=O)c3c(c(-c4ccc5c(c4)OCO5)c2cc1OC)C(=O)OC3,"inconclusive [inhibitor, full curve, poor fit]",
C=CCn1c(N)c(C(=O)OCCC)c2nc3ccccc3nc21,"inconclusive [inhibitor, single point]",
Cc1ccccc1OCc1nnc(SCC(=O)Nc2ccc3nc(SCC(=O)NC(C)(C)C)sc3c2)n1C,"inconclusive [inhibitor, partial curve]",
CCOc1cc(/C=C/C(=O)c2ccc(O)cc2)ccc1OCC(=O)N(C)C,"inconclusive [inhibitor, full curve, poor fit]",
COc1ccc(NC(=O)CSc2nnc(CCC(=O)O)c(=O)n2N)cc1,,inactive: 9.66%
CC(C)(C)c1cc(=O)n2c(nc3ccccc32)[nH]1,"inconclusive [inhibitor, single point]",
CC(C)CN1CCC(=O)N(CCSc2ccc(Br)cc2)CC1,,inactive: 39.5%
Cc1ccc(NC(=O)CSc2n[nH]c(C)c2[N+](=O)[O-])cc1C,,inactive: 7.28%
CC(C)/C=C/C(=O)N1CCCC(N2CCN(c3ccccc3F)CC2)C1 (stereo unspecified),,inactive: -12.3%
Cc1ccc(/C=N/NC(=O)NC23CC4CC(CC(C4)C2)C3)o1,,inactive: 19.9%
COc1ccc(NC(=O)c2nc[nH]c2C(=O)N[C@@H](CC(C)C)C(=O)OC(C)(C)C)cc1,,inactive: -25%
Cc1ccc(-n2c(C)cc(C(=O)COc3c(CO)cc(F)cc3CO)c2C)cc1C,"inconclusive [inhibitor, single point]",
Cc1oc2cc3c(C(=O)N4CCCCC4)c(C)oc3cc2c1C(=O)N1CCCCC1,"inconclusive [inhibitor, full curve, poor fit]",
Cc1cc(S(=O)(=O)NCC(C)C)ccc1OCC(=O)N1CCN(Cc2ccccc2)CC1,"inconclusive [inhibitor, full curve, poor fit]",
COc1ccccc1N1CCN(CC(O)COc2ccc3c(C)cc(=O)oc3c2)CC1 (stereo unspecified),"inconclusive [inhibitor, single point]",
CCCC(C)NC(=O)CN(c1ccc2c(c1)OCCO2)S(=O)(=O)c1ccccc1 (stereo unspecified),,inactive: -4.44%

# From PubChem BioAssay AID651820 (National Center for Advancing Translational Sciences (NCATS), 2012)
